Measurements as given in PubChem BioAssay AID1508624 (National Center for Advancing Translational Sciences (NCATS), 2021).
The whole screen tested about 48,000 compounds, of which about 120 (0.25%) were called active. Another 4% or so got no clear call; they are omitted. Calls follow the shape of the dose curve; as a rule, active = well fitted activation curve with a large enough effect; inconclusive = small, poorly fitted or top-dose-only effect, or another doubt; inactive = no such curve, though single readings can be large or run the other way. Some of the results follow.

Experiment: Primary qHTS for Identification of Small Molecule Activators of Huntingtin-Antisense Promoter Activity; also: nearly all actives have a fitted effect of over 55% in size
Conditions: HEK293 HTT-AS promoter firefly luciferase reporter, 24 h; series mostly up to 57.5 µM; activity change, positive = activation: at the top concentration
Outline: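 HEK293 cells carrying firefly luciferase reporters were seeded at 2,500 per well in Opti-MEM and cultured for 24 h. They were then treated with compounds at up to 57.5 uM final for 24 h at 37 degrees C before Dual-Glo luminescence readout.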

Activity change, positive = activation, inactive:
CCc1cccc(CC)c1NC(=O)C(CC)n1nc(C)n2c(cc3cc(C)ccc32)c1=O (stereo not drawn) -3.85%
Cc1ccc2c(c1)C(c1ccccc1)N(C(=O)c1ccccc1F)CC(=O)N2 (stereo not drawn) -19.9%
CCOC(=O)c1cccc(NC(=O)c2cc3cc4ccc(C)cc4nc3o2)c1 -2.78%
CCCn1c(SCc2nc(-c3cc(OC)ccc3OC)no2)nnc1-c1ccc(Cl)cc1 -19.1%
Cc1ccc(NC(=O)CCNS(=O)(=O)c2ccc(Br)s2)cc1 -11.4%
O=C(NCCS(=O)(=O)N1CCN(c2ccccc2F)CC1)C(c1ccccc1)c1ccccc1 12.3%
CNCCCC1c2ccccc2C=Cc2ccccc21 -16.7%
O=C(Nc1ccccc1Cl)c1cc(S(=O)(=O)N2CCC3(CC2)OCCO3)ccc1F -24.4%
Cc1ccc(-c2nc(NC(=O)CSc3ncnc4sc5c(c34)CCC(C)C5)ns2)cc1 (stereo not drawn) -1.63%
CCOc1ccc(N(CC)S(=O)(=O)N2CCCC(C(=O)Nc3ccc(OC)c(OC)c3)C2)cc1 (stereo not drawn) -31.1%
CCn1cc2nc(SCc3ccccc3Cl)n(CCc3ccccc3)c(=O)c2n1 -22.8%
CCOc1ccc(-n2ccn3c(CC(C)CC(=O)O)nnc3c2=O)cc1 (stereo not drawn) -6.69%
COc1ccc2c(c1)c1c(c(=O)n(-c3ccc(C)cc3)c(=O)n1CC(=O)N1CCCC1)n2C -11.5%
CCC12CN3CC(C)(CN(C1)C3c1ccccc1C)C2=O (stereo not drawn) 12.1%
CCOC(=O)C1=C[C@@H](OC(CC)CC)[C@H](NC(C)=O)[C@@H](N)C1 -12.9%
Cc1ccccc1-c1nc2cc(NC(=O)c3cccc(OCCC(C)C)c3)ccc2o1 0.674%
CCOC(=O)N1CCC(NC(=O)c2ccc3c(c2)N(Cc2ccccc2)C(=O)c2ccccc2S3=O)CC1 (stereo not drawn) -11%
CCCCN(Cc1ccccc1)S(=O)(=O)c1cc(Br)cc2c1N(C(=O)C1CC1)CC2 -32.4%
COc1cc(NC(=O)c2ccc(-c3nc(COc4ccccc4)c(C)o3)cc2)cc(OC)c1 -47.8%
O=C(CSc1nnc(CNC(=O)c2ccccc2F)n1-c1ccccc1)Nc1ccccc1F -15%
CCCNC(=O)CCn1nc(-c2ccccc2)c2ccccc2c1=O 6.11% [at 11.5 µM, percent change from vehicle, -100% = no light]
O=C(CCc1nnc2n(Cc3ccccc3Cl)c(=O)c3ccccc3n12)Nc1ccc(F)cc1 -6.89%
CC(=O)C1=C(c2ccc(Cl)c(Cl)c2)N(C(C)=O)n2c(nnc2C2CCCCC2)S1 5.21%
CCC(Cn1nnc2ccccc2c1=O)NC(=O)Nc1ccc(C)cc1 (stereo not drawn) -3.98%
CCOc1ccc(OCC)c(NC(=O)c2cc(CN3CCOCC3)on2)c1 -5.35%
COc1cccc(CNC(=O)C(NS(=O)(=O)c2cccs2)C(C)C)c1 (stereo not drawn) -7.34%
COc1cccc(CNC(=O)c2ccc3nc(N4CCCCC4)sc3c2)c1OC -4.53%
Cc1ccc(CN2CCSc3ccc(C(=O)N4CCN(c5ccc(Cl)cc5)CC4)cc32)cc1 -35.5%
COc1ccccc1NC(=O)c1cc(S(=O)(=O)NCCc2ccccc2)ccc1F -5.83%
O=c1c2cccnc2n(Cc2ccccc2F)c(=O)n1Cc1ccc(F)cc1 -19.8%
CCCCN1C(=O)c2[nH]nc(-c3ccccc3O)c2C1c1cc(Br)c(O)c(OC)c1 (stereo not drawn) -39.4%
C[C@]12CCC(=O)C=C1CC[C@@H]1[C@@H]2[C@@H](O)C[C@@]2(C)[C@H]1CC[C@]2(O)C(=O)CO -6.48%
COc1ccc(NC(=O)Cn2c3ncccc3c(=O)n2-c2ccc(C)c(C)c2)c(OC)c1 -9.52%
O=S(=O)(Nc1ccc2nc(-c3ccc(F)cc3)oc2c1)c1ccccc1 4.62%
CCOCCCNC(=O)C(c1ccc(OC)cc1)N(Cc1ccc2c(c1)OCO2)C(=O)c1ccc(NC(C)=O)cc1 (stereo not drawn) -2.49%
CCCCc1nn2c(=O)cc(COC(=O)c3ccc(NC(=O)c4ccccc4Cl)cc3)nc2s1 11.9%
COc1ccc(-n2cc(C(=O)OCc3ccc(F)c(F)c3)c3ccccc3c2=O)cc1 -18.6%
CCc1ccc(NS(=O)(=O)c2ccc3[nH]cc(C(=O)NCCc4cccc(C)c4)c(=O)c3c2)cc1 -11.5%
O=C(NC1(C(F)(F)F)C(=O)Nc2c1c(=O)[nH]c(=O)n2-c1ccc(F)cc1)c1ccccc1 (stereo not drawn) 10.6%
COc1ccc(C2C(=O)N(C3CCCCC3)CC(=O)N2CCC2=CCCCC2)cc1 (stereo not drawn) -29.6%
CCOc1ccc(-n2c(=O)c3sc4ccccc4c3n(Cc3cccc(C)c3)c2=O)cc1 1.72%
Cc1cccc(N2CCN(C(=O)CCc3c(C)nc4c(c3C)c(=O)n(C)c(=O)n4C)CC2)c1C -16.2%
Cc1ccc(OC(=O)c2cc(-c3ccc(Cl)cc3)on2)c(C)c1 -6.42%
CC1CCC(NC(=O)c2ccc3c(c2)N(Cc2ccccc2F)C(=O)c2ccccc2S3=O)CC1 (stereo not drawn) 17.6%
CCOc1ccc(CCNC(=O)Cn2ncn3c(cc4sc(C)cc43)c2=O)cc1OCC -2.74%
O=C(NCc1ccccc1)C(=O)NCC(c1ccc2c(c1)OCO2)N1CCOCC1 (stereo not drawn) -12.4%
COc1ccc2c(c1)sc1ncc(C(=O)NCc3ccc(Cl)cc3)c(=O)n12 -1.27%
Cc1ccc2c(c1)C(=O)OC(C(=O)Nc1ncc(Cc3ccccc3Cl)s1)C2 (stereo not drawn) -6.83%
